The values below come from PubChem BioAssay AID488969 (Vanderbilt High Throughput Screening Facility, 2010).

The full ranking holds about 110,000 compounds; the median of “z-score” is about -0.1, and the highest 2% start at about 2. This is one part of the list. Active and inactive are the calls of the source.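 How the source made its calls: active means z-score in the third read window above 3 or below -3; inactive means the rest.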

The experiment has as its target Metabotropic glutamate receptor 8 (Rattus norvegicus) (UniProt P70579). As to the kind of experiment: rat mGluR8 modulators via GIRK flux, primary screen, cell-based, thallium flux, HTS (AID 488969). The settings on record: HEK293 rat mGluR8, GIRK (G protein-gated inwardly rectifying potassium channel) thallium flux, FluoZin2; at 10 µM; stronger effect = higher value; submaximal glutamate (EC20) added with thallium.
Chain of UniProt P70579 (P70579 whole entry, looked up): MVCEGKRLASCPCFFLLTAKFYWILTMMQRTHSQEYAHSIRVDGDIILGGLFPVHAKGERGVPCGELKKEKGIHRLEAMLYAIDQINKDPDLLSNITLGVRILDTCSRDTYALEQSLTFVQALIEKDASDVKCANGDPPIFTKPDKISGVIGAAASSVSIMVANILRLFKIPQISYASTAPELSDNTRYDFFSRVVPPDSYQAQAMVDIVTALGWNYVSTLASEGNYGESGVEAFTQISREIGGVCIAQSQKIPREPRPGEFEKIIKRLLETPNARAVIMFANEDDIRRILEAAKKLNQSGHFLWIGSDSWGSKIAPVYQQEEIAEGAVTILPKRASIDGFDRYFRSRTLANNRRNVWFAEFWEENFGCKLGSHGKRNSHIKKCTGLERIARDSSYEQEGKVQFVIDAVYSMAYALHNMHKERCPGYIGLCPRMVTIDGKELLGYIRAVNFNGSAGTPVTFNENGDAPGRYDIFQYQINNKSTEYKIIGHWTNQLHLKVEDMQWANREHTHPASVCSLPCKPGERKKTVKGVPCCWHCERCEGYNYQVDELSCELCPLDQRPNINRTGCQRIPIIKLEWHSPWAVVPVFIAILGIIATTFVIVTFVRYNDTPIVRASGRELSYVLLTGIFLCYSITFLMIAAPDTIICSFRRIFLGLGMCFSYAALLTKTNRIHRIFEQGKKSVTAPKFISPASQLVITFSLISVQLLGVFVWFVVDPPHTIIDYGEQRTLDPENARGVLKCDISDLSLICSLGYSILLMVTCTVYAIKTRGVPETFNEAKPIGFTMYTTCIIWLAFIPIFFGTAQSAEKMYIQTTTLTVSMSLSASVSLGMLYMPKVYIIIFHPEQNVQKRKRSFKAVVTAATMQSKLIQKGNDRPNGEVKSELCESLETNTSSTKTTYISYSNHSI
Turning to `C/C(Cn1nc([N+](=O)[O-])cc1C)=N\NC(=O)c1cccc(Br)c1`, the z-score is -0.134. In turn, `N#CC1=C(N)OC(c2ccccc2)=C(C#N)C1c1ccc2c(c1)OCO2` (stereo unspecified) came in with a z-score of -0.0787. `COC(=O)c1ccccc1NC(=O)N[C@@H](C)C(=O)OC` came in with a z-score of 0.0183. In turn, `Cc1nnc(NC(=O)c2cccc(NC(=O)C(C)C)c2)s1` gave a z-score of 0.211. Under `O=C1CC(N2CCOCC2)C(=O)N1c1ccc2c(c1)OCO2` (stereo unspecified) stands -0.00271; under `CCc1ccc(CNn2cnnc2SCC(=O)NC(C)(C)C)cc1`, -0.032; under `CCCOc1ccc(NC(=O)CC2C(=O)N(C)C(=S)N2Cc2cccs2)cc1` (stereo unspecified), -0.253. Under `CC1=C(C(=O)OC(C)C)C(c2c(O)ccc3ccccc23)NC(=O)N1` (stereo unspecified) stands 0.549. Under `Cc1ccc(CCNC(=O)Cn2cccc2)cc1` stands 0.233. In turn, `CSCCC(NC(=O)c1cccc([N+](=O)[O-])c1)C(=O)O` (stereo unspecified) had a z-score of -0.182.

The compound `COc1ccccc1-c1cc(C(=O)N2CCCCC2)no1` returned a z-score of 0.227.

The compound `CCOc1cc(C)c(Cl)cc1S(=O)(=O)NCC1CCCO1` (stereo unspecified) displayed a z-score of -1.28.

As to `CC(=O)Nc1ccc(NS(=O)(=O)c2ccc3ccccc3c2)cc1`, the z-score is -0.075. Under `Cc1ccc(C)c(-c2cc(C(=O)Nc3sc(C)c(C)c3C(N)=O)c3ccccc3n2)c1` stands -0.16; under `COc1ccc(C2C(C(=O)N3CCN(c4ccc(OC)cc4)CC3)c3ccccc3C(=O)N2C)cc1` (stereo unspecified), 0.463. Next, `CCOC(=O)CNC(=O)C(Cc1ccccc1)NS(=O)(=O)c1cccs1` (stereo unspecified): 0.447; `CCOc1ccc(NC(=O)c2ccccc2OC)cc1`: -1.83; `Cc1ccccc1NC(=O)CN(C)S(=O)(=O)c1cccc2cccnc12`: 0.523.

Turning to `COc1ccc(NC(=O)COc2ccc(/C=N/n3c(C)nnc3C)cc2OC)cc1`, the z-score is -0.586.

In the case of `CN(C)S(=O)(=O)c1ccc(NC(=O)CNc2cc(S(=O)(=O)N3CCCC3)ccc2OCC(F)(F)F)cc1`, the z-score was determined as 0.0677. Under `CC1CCCCN1CCNC(=O)c1cc2c(-c3ccccc3F)nn(C)c2s1` (stereo unspecified) stands -0.0482; under `Cc1cccc2c1-c1sc(C(=O)Nc3nccs3)cc1CO2`, -0.00441; under `Cc1ccc(-n2c(C)cc(C(=O)Cn3nc(C(=O)O)c4ccccc4c3=O)c2C)cc1`, -0.252.

Regarding `Cc1nc2cc(NS(=O)(=O)c3c(C)c(C)cc(C)c3C)ccc2s1`, the z-score is -0.223. Next, `Cc1cccc(C)c1NC1=NC(=S)N(c2ccc(N(C)C)cc2)C1(C)C`: 1.87; `O=C(/C=C/c1ccccc1Cl)N1CCCN(C(=O)/C=C/c2ccccc2Cl)CC1`: -0.173. Next, `CCOC(=O)C1=C(C)N=c2s/c(=C/c3ccccc3)c(=O)n2C1c1ccc(OC)c(OC)c1` (stereo unspecified): -0.183; `CC(C)CSc1ncc(-c2cccc(C(F)(F)F)c2)cn1`: -0.00497. As to `O=C(OCc1nc2ccccc2c(=O)[nH]1)c1cccs1`, the z-score was -0.141. Under `Cc1ccccc1Nc1nc(N)nc(CSc2nnnn2-c2ccccc2)n1` stands -0.414; under `O=c1c2ccccc2oc2nc3n(c(=O)c12)CCCS3`, -0.498; under `Cc1cccc(C)c1OCC(=O)N/N=C/c1ccc2c(c1)OCO2`, -0.485. The compound `Cc1sc(NC(=O)c2ccco2)c(CN2CCN(c3ccc(F)cc3)CC2)c1C` returned a z-score of -0.328.

`COC(=O)c1cccnc1NC(=S)NNC(=O)c1ccccc1`: the z-score was determined as 0.44. The compound `COc1cc(OC)cc(C(=O)N[C@H](C(=O)OCC(=O)Nc2ccc(C(N)=O)cc2)C(C)C)c1` displayed a z-score of 0.0447. Under `O=C(O)Cc1ccc2ocnc2c1` stands -0.599; under `CC(C)(C)n1nnnc1C(c1ccccc1)N1CCc2ccccc2C1` (stereo unspecified), -0.772. The compound `CCc1ccc(/C=C/C(=O)c2ccc(S(=O)(=O)N(C)C)cc2)cc1` displayed a z-score of -0.379.

`CCOC(=O)c1c(NC(=O)CN2CCCCC2)sc2c1CCC(C=O)=C2Cl` yielded a z-score of -0.365. Under `CC(C)OC(=O)c1sc2nc(-c3ccccc3)ccc2c1N` stands -0.167.

`Cc1cnc(C)c(N2CCC(C(=O)NCc3cccs3)CC2)n1` showed a z-score of -0.234. With `CC(=O)c1cccc(Nc2nc(-c3cccc([N+](=O)[O-])c3)cs2)c1`, the z-score was 0.000867. Take `COc1ccc(OCC(=O)N/N=C2\CCc3ccccc32)cc1`: the z-score is -0.274. Under `COC(=O)C(NC(=O)c1ccco1)(Nc1ccc(Br)cn1)C(F)(F)F` (stereo unspecified) stands -0.589. Next, `Cc1nc(C)n(C(=O)N(c2ccccc2)c2ccccc2)n1`: 0.16; `Cc1cc(C)c(NC(=O)C2CSCCS2)c(C)c1` (stereo unspecified): -0.163. The compound `COc1ccc(/C=C2\N=C(c3c(-c4ccccc4)noc3C)OC2=O)cc1OC` yielded a z-score of -0.381.

For `COc1ccc(CNC(=O)CCSCc2cccc(Cl)c2)cc1`, the z-score came to 0.0558.

For `CC1=CS(=O)(=O)CC1Sc1ncn[nH]1` (stereo unspecified), the z-score is -0.0073. `CCC(=O)c1cc2c(cc1NC(=O)C(C)C)OCCO2` came in with a z-score of -0.256. Next, `Cc1noc(NS(=O)(=O)c2ccc(NC(=O)CSc3nc4ccccc4[nH]3)cc2)c1C`: -0.137; `Cc1nn(C(C)C(=O)NCc2ccccc2)c(C)c1[N+](=O)[O-]` (stereo unspecified): 0.375; `CCCn1nc2cc(C(=O)NC3CCc4ccccc43)ccc2c1OCC` (stereo unspecified): -0.247. `O=C1C(Nc2ccccc2)=C(N2CCCCC2)C(=O)c2ccccc21`: the z-score is -0.417.

In the case of `CC1(C)OC(C)(C)/C(=C/Nc2ccc(O)cc2)C1=O`, the z-score is -1.24. Turning to `COc1cc2cc(C(c3nnnn3C3CCCC3)N(C)C3CCCCC3)c(=O)[nH]c2cc1OC` (stereo unspecified), the z-score stood at 0.0453. Next, `O=C1C=C(N(CCO)CCO)C2(CCCCC2)O1`: 0.224. Under `CC1CCN(C2(O)C(=O)Nc3ccc([N+](=O)[O-])cc32)CC1` (stereo unspecified) stands -0.167.

In the case of `Cc1ccc(C(=O)Nc2nnc(-c3ccco3)o2)cc1C`, the z-score was 0.973. For `CC(Nc1nc(N2CCCC2)nc2ccccc12)c1ccccc1` (stereo unspecified), the z-score was determined as 1.84. `COc1ccc(S(=O)(=O)NCc2ccc3c(c2)OCO3)cc1C`: the z-score was -0.278. Consider `Cc1cc([N+](=O)[O-])ccc1NC(=S)NC(=O)Cc1ccccc1`, for which the z-score was active: 6.82.

On to `CC(=O)n1nc(-c2ccccc2)nc1NCc1ccc(F)cc1`, for which the z-score is -0.913.

As to `O=c1cc(NC2CCCCC2)c2ccccc2o1`, the z-score is -0.207. Under `O=C(CSc1nnc(Cc2ccccc2)n1-c1ccccc1)NNC(=O)Cc1ccccc1` stands -0.266; under `CCC(=O)c1cc2c(C)cc(=O)oc2c(C)c1O`, 0.19; under `COc1cccc(C(=O)COC(=O)c2ccc(NC(C)=O)cc2)c1`, 0.201. Next, `Cc1cc(NC(=O)c2c([N+](=O)[O-])cnn2C)no1`: -0.164. Take `C=CCNC(=S)NCCCCC1NC(=S)N(CC=C)C1=O` (stereo unspecified): the z-score is -0.0297. In turn, `CCCCNC(=O)Cn1nc([N+](=O)[O-])c([N+](=O)[O-])c1C` showed a z-score of -0.27. Next, `CC(C)NC(=S)NNC(=O)C12CC3CC(CC(C3)C1)C2`: -0.0299.
